Measured values: PubChem BioAssay AID504339 (National Center for Advancing Translational Sciences (NCATS), 2011)
The campaign covered roughly 390,000 compounds. About 17,000 (4.4%) were called active. This list was built around the results that the source calls inconclusive (neither active nor inactive); the mix of calls is not that of the screen. Calls follow the shape of the dose curve; as a rule, active = well fitted inhibition curve with a large enough effect; inconclusive = small, poorly fitted or top-dose-only effect; inactive = no such curve, though single readings can be large or run the other way. Potencies beside an inconclusive call are fits to weak or partial responses and may not hold up.

target: Lysine-specific demethylase 4A (Homo sapiens) (UniProt O75164); assay: qHTS Assay for Inhibitors of JMJD2A-Tudor Domain; details: AlphaScreen JMJD2A-Tudor / H3K4me3 peptide binding; series mostly up to 114 µM; also: nearly all actives have a fitted effect of over 50% in size
Sequence of UniProt O75164 (O75164 whole entry, looked up, the tested form may be a part): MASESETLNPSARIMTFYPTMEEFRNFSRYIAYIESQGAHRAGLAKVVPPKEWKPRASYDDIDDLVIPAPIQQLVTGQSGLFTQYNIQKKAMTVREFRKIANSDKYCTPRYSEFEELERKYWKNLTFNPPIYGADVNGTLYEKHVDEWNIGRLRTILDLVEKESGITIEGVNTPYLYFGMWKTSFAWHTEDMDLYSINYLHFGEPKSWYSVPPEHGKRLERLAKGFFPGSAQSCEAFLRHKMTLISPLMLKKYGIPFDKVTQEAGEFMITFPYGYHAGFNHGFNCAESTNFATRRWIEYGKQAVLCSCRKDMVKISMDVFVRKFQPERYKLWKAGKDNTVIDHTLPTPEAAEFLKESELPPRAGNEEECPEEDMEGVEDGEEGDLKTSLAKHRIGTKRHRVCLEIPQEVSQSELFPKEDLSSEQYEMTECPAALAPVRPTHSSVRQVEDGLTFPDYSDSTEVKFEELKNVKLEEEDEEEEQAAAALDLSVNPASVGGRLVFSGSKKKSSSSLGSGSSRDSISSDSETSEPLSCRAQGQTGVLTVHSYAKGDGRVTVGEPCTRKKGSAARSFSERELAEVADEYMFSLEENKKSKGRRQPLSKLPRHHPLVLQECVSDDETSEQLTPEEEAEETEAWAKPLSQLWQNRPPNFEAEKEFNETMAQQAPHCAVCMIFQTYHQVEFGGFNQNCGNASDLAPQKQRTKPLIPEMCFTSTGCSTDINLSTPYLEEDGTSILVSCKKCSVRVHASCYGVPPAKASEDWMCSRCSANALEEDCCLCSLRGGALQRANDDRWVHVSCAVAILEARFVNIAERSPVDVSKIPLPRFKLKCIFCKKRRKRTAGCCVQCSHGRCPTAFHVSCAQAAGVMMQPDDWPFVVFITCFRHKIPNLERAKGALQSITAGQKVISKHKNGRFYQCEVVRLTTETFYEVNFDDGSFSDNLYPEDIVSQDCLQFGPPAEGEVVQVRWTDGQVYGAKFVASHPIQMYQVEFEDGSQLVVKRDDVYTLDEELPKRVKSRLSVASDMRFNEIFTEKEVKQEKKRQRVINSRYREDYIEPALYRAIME
Potency is read from the fitted curve at half-maximal effect; tags tell the direction and shape of the fitted curve.

Potency, inactive:
CCOC(=O)c1cn(Cc2c(C)c(C)c(C)c(C)c2C)nn1, O=C(/C=C/c1ccco1)Nc1nc(-c2ccc(F)c(F)c2)cs1, O=C(NCC1CCCCC1)c1cccc([N+](=O)[O-])c1, Nc1c(-c2n[nH]c(=S)n2-c2ccc(Cl)cc2Cl)cnn1-c1ccccc1, CC1=C(C(=O)Nc2ccccc2)C(c2ccncc2)n2nc(SCc3ccccc3F)nc2N1 (stereo not given), CCn1c2ccccc2c2cc(CNCCCN3CCOCC3)ccc21, O=C(Nc1ccc(Cc2ccc(NC(=O)C3CC3)cc2)cc1)C1CC1, O=C(CSc1nnc(-c2cccc(S(=O)(=O)N3CCCCC3)c2)o1)NCCC1=CCCCC1, CCNC(=O)C1CCN(c2nnc(C)c3c(C)n(-c4ccc(OC)cc4)nc23)CC1, O=C(CSc1n[nH]c(=O)[nH]c1=O)N/N=C/C=C/c1ccccc1, CCc1c(O)nc(SCC(=O)N2CCc3cc(OC)c(OC)cc3[C@@H]2C)[nH]c1=O, CCc1ccccc1S(=O)(=O)Cc1ccc(C(=O)NC2CCCC2)o1

Potency, active:
COc1ccc(-n2c(-c3ccc(C)cc3)cc3c2CC(C)(C)CC3=O)c(OC)c1 17.8 µM, O=c1cc(-c2ccc(O)c(O)c2)oc2cc(O)c([C@@H]3O[C@H](CO)[C@@H](O)[C@H](O)[C@H]3O)c(O)c12 31.6 µM, CCN1/C(=C/c2ccc3ccccc3[n+]2CC)C=Cc2ccccc21 35.5 µM, CCN1C(c2ccccc2)=C(c2ccccc2)S/C1=C/C=C1\SC(=S)N(C)C1=O 8.91 µM, CCN(c1ccccc1)S(=O)(=O)c1ccc(Oc2ccc(-n3ccnc3)cc2)nc1 89.1 µM, CC(=O)N(C)c1ccc(C=C2C=Cc3ccccc32)cc1 79.4 µM, CCOC(=O)[C@H](CCc1ccccc1)N[C@@H](C)C(=O)N1CCC[C@@H]1C(=O)O 20 µM

Potency, inconclusive:
Cc1ccn2c(=O)nc(SCC(=O)NCc3ccc4c(c3)OCO4)nc2c1 25.1 µM [inhibitor, full curve, poor fit], CC1CC(C)CN(C(=O)c2ccc3c(c2)N(Cc2ccccc2)CCS3)C1 (stereo not given) 35.5 µM [inhibitor, full curve], Cc1ccc(C)c(Oc2cc(NN3CCCCC3)c([N+](=O)[O-])cc2[N+](=O)[O-])c1 44.7 µM [inhibitor, partial curve, poor fit], NC(=O)C1CCN(c2nc(-c3ccc4ccccc4c3)cs2)CC1 56.2 µM [inhibitor, partial curve], Cc1cc(C(=O)CC#N)c(C)n1-c1c(C)n(C)n(-c2ccccc2)c1=O 15.8 µM [inhibitor, full curve, poor fit], Cc1ccsc1C(=O)NC1CCCN(Cc2ccc(Cl)cc2)C1 (stereo not given) 28.2 µM [inhibitor, single point], CCOC(=O)CSc1nnc(CNc2cccc(Cl)c2)n1C 3.55 µM [inhibitor, single point], CCC(C)(C(=O)NC1CCCCC1)N(C(=O)C1CCC(=O)N1)c1ccc(C)cc1 (stereo not given) 56.2 µM [inhibitor, partial curve], O=C(Nc1ccc2nn(-c3ccccc3)nc2c1)c1ccc(Br)o1 12.6 µM [inhibitor, full curve, poor fit], COc1ccc(C(C)=O)cc1CC(=O)N(Cc1ccccc1)c1ccccc1 25.1 µM [inhibitor, single point], CCOC(=O)c1sc(=S)n(C)c1NC(=O)c1ccc(F)cc1 89.1 µM [inhibitor, single point], COc1ccc(/C=N/NC(=O)c2[nH]c3ccc(Br)cc3c2-c2ccccc2)c(C(=O)O)c1OC 50.1 µM [inhibitor, partial curve], CCOC(=O)C1=C(O)/C(=C\c2ccc(CNC(=O)C(=O)Nc3ccccc3)o2)N=C1C 79.4 µM [inhibitor, single point], Cc1[nH]nc2c1C(c1ccc(-c3ccccc3C#N)o1)C(C#N)=C(N)O2 (stereo not given) 79.4 µM [inhibitor, partial curve], N#Cc1nc(-c2cccs2)oc1N1CCN(c2ccccc2)CC1 22.4 µM [inhibitor, full curve], O=S(=O)(NCc1cc(-c2ccccc2Cl)no1)c1ccc(Cl)cc1 39.8 µM [inhibitor, single point], COc1ccc(F)cc1C(=O)C1CCCN(C(=O)c2cccc(N(C)C)c2)C1 (stereo not given) 89.1 µM [inhibitor, single point], O=S(=O)(c1ccccc1)c1nc(-c2cccs2)oc1NCCCn1ccnc1 79.4 µM [inhibitor, partial curve], COc1ccc(C(=O)c2c(N)sc3c2CCN(C(=O)OC(C)(C)C)C3)cc1 56.2 µM [inhibitor, partial curve], CCN1CCN(c2nc3c(C)cccn3c(=O)c2/C=C(\C#N)S(=O)(=O)c2ccc(C)cc2)CC1 50.1 µM [inhibitor, partial curve], Cc1cccc(NC(c2ccccc2C)c2ccc3ccc(C)nc3c2O)n1 (stereo not given) 7.94 µM [inhibitor, full curve], O=C1CSC(=NC(=O)c2ccccc2)N1 79.4 µM [inhibitor, single point], CNC(=O)C1CCN(S(=O)(=O)c2c(C)noc2/C=C/N(C)C)CC1 39.8 µM [inhibitor, single point], CC(C)n1c(/N=C/c2c[nH]c3ccccc23)nc2ccccc21 25.1 µM [inhibitor, full curve, poor fit], S=C(Nc1cccc(Cl)c1Cl)Nn1cnnc1 79.4 µM [inhibitor, partial curve], Cc1cc(C)cc(CSCC(=O)N/N=C/c2ccc(OCC(=O)NCc3ccco3)cc2)c1 15.8 µM [inhibitor, full curve]
